Article PMC11995724, “Antibiotic target discovery by integrated phenotypic and activity-based profiling of electrophilic fragments” (Cell chemical biology, 2025)
The whole screen tested about 3,200 compounds, of which about 75 (2%) showed an effect of 50% or more. This is one part of the list.

Test system: T1, S. aureus MSSA476
T1 construct: MSSA476
Set-up: species or system S. aureus MSSA476 (TSB) or V. cholerae SAD30 (LB); 384-well bacterial growth screen at 25 uM, OD600 relative to DMSO control
Conditions: relative growth, OD600, TSB; 25 µM; inhibitor

SMILES	% of control remaining
C=CC(=O)N1CCCC(c2nn(C)cc2C(N)=O)C1 (stereo not drawn) [1-D07, 1-methyl-3-[1-(prop-2-enoyl)piperidin-3-yl]-1H-pyrazole-4-carboxamide]	92.1319%
CC1CCCCC1NC(=O)C(C#N)=Cc1cccc(O)c1 (stereo not drawn) [8-E07, 2-cyano-3-(3-hydroxyphenyl)-N-(2-methylcyclohexyl)prop-2-enamide]	84.3154%
C=CC(=O)NC[C@@H]1CCCN1c1ccccc1 [3-E03, N-{[(2S)-1-phenylpyrrolidin-2-yl]methyl}prop-2-enamide]	120.505%
Cl.O=C(CCl)Nc1ccccn1 [5-B14, 2-chloro-N-(pyridin-2-yl)acetamide hydrochloride]	91.0747%
O=C(CCl)Nc1sc2c(c1C(=O)c1ccccc1)CCCC2 [4-A06, N-(3-benzoyl-4,5,6,7-tetrahydro-1-benzothiophen-2-yl)-2-chloroacetamide]	152.835%
COc1ccccc1[C@H]1C[C@H](NC(=O)CCl)C1 [7-L18, 2-chloro-N-[(1r,3r)-3-(2-methoxyphenyl)cyclobutyl]acetamide]	63.4223%
C=CC(=O)Nc1cccc(C(F)(F)CF)c1 [2-O12, N-[3-(1,1,2-trifluoroethyl)phenyl]prop-2-enamide]	84.9434%
CC(Cl)C(=O)NC1CCCN(c2ncccn2)C1 (stereo not drawn) [7-C21, 2-chloro-N-[1-(pyrimidin-2-yl)piperidin-3-yl]propanamide]	90.4239%
N#CC(=Cc1ccccc1OC(F)F)C(=O)Nc1ccccc1Cl [9-M21, N-(2-chlorophenyl)-2-cyano-3-[2-(difluoromethoxy)phenyl]prop-2-enamide]	76.7041%
COCC(C)NC(=O)C(C#N)=Cc1cc2cc(F)ccc2o1 (stereo not drawn) [9-F04, 2-cyano-3-(5-fluoro-1-benzofuran-2-yl)-N-(1-methoxypropan-2-yl)prop-2-enamide]	100.375%
CS(=O)(=O)N1CCCc2cc(C(=O)CCl)ccc21 [10-H19, 2-chloro-1-(1-methanesulfonyl-1,2,3,4-tetrahydroquinolin-6-yl)ethan-1-one]	1.5625%
CN(Cc1ccc(N(C)C)cc1)C(=O)CCl.Cl [5-F06, 2-chloro-N-{[4-(dimethylamino)phenyl]methyl}-N-methylacetamide hydrochloride]	105.647%
C=CC(=O)N(C)CC(=O)N1CCn2cc(C(F)(F)F)nc2C1 [3-A04, N-methyl-N-{2-oxo-2-[2-(trifluoromethyl)-5H,6H,7H,8H-imidazo[1,2-a]pyrazin-7-yl]ethyl}prop-2-enamide]	110.753%
CN(C)S(=O)(=O)c1cc(NC(=O)CCl)ccc1Cl [5-E13, 2-chloro-N-[4-chloro-3-(dimethylsulfamoyl)phenyl]acetamide]	108.197%
NC(=O)c1coc(C(=O)CCl)c1 [10-C05, 5-(2-chloroacetyl)furan-3-carboxamide]	105.938%
CC(Cl)C(=O)N1CCN(CC(F)(F)F)CC1C(C)C (stereo not drawn) [7-C22, 2-chloro-1-[2-(propan-2-yl)-4-(2,2,2-trifluoroethyl)piperazin-1-yl]propan-1-one]	69.3878%
CC(Cl)C(=O)NC1CCN(CC(=O)Nc2ccccc2)CC1 (stereo not drawn) [7-E13, 2-chloro-N-{1-[(phenylcarbamoyl)methyl]piperidin-4-yl}propanamide]	94.1915%
C=CC(=O)NCCc1c(C)oc2ccccc12 [1-N07, N-[2-(2-methyl-1-benzofuran-3-yl)ethyl]prop-2-enamide]	109.011%
CC(Cl)C(=O)NC(C)c1nc(Cc2ccccc2)no1 (stereo not drawn) [7-B19, N-[1-(3-benzyl-1,2,4-oxadiazol-5-yl)ethyl]-2-chloropropanamide]	70.9576%
C=CC(=O)Nc1nn(C2CCCC2)c(C)c1Cl [1-O06, N-(4-chloro-1-cyclopentyl-5-methyl-1H-pyrazol-3-yl)prop-2-enamide]	120.264%
O=C(CCl)NCC1(c2ccccc2)CCOCC1 [6-I07, 2-chloro-N-[(4-phenyloxan-4-yl)methyl]acetamide]	92.1951%
C=CC(=O)Nc1nc(C)c(CC(C)C)s1 [1-J12, N-[4-methyl-5-(2-methylpropyl)-1,3-thiazol-2-yl]prop-2-enamide]	123.78%
C=CC(=O)N(Cc1ccc(OC)cc1)[C@@H]1CCCC[C@H]1O [2-M05, N-[(1R,2R)-2-hydroxycyclohexyl]-N-[(4-methoxyphenyl)methyl]prop-2-enamide]	114.186%

SMILES	% of control remaining
CC(Cl)C(=O)NCc1noc2ccccc12 (stereo not drawn) [7-I14, N-[(1,2-benzoxazol-3-yl)methyl]-2-chloropropanamide]	108.32%
CC(C)c1ccc(C(C)NC(=O)CCl)cc1 (stereo not drawn) [4-I05, 2-chloro-N-{1-[4-(propan-2-yl)phenyl]ethyl}acetamide]	78.8947%
CC(Cl)C(=O)N[C@H]1CN(Cc2ccccc2)C[C@@H]1c1ccccc1 (mixture of isomers) [7-N09, rac-N-[(3R,4S)-1-benzyl-4-phenylpyrrolidin-3-yl]-2-chloropropanamide]	77.237%
Cc1nc2ccccc2n(CCCNC(=O)C(C)Cl)c1=O (stereo not drawn) [7-O21, 2-chloro-N-[3-(3-methyl-2-oxo-1,2-dihydroquinoxalin-1-yl)propyl]propanamide]	91.3658%
Cc1nn(Cc2ccccc2)c(C)c1CNC(=O)CCl [4-O11, N-[(1-benzyl-3,5-dimethyl-1H-pyrazol-4-yl)methyl]-2-chloroacetamide]	107.48%
CC(Cl)C(=O)NCCCN1CCc2ccccc2C1 (stereo not drawn) [7-M11, 2-chloro-N-[3-(1,2,3,4-tetrahydroisoquinolin-2-yl)propyl]propanamide]	85.7143%
N#CC(=Cc1ccc(O)cc1)C(=O)Nc1cc(Cl)ccc1Cl [9-F03, 2-cyano-N-(2,5-dichlorophenyl)-3-(4-hydroxyphenyl)prop-2-enamide]	83.5955%
CC(=O)c1cccc(NC(=O)C(C)Cl)c1 (stereo not drawn) [6-K22, N-(3-acetylphenyl)-2-chloropropanamide]	98.6829%
CC(NC(=O)CCl)c1nnc(-c2ccccc2F)s1 (stereo not drawn) [7-L21, 2-chloro-N-{1-[5-(2-fluorophenyl)-1,3,4-thiadiazol-2-yl]ethyl}acetamide]	97.0173%
Nc1c(C(=O)CCl)c(=O)[nH]c(=O)n1Cc1ccccc1 [10-J18, 6-amino-1-benzyl-5-(2-chloroacetyl)-1,2,3,4-tetrahydropyrimidine-2,4-dione]	130.938%
CCOC(=O)c1c(C)[nH]c(C)c1C(=O)CCl [10-C10, ethyl 4-(2-chloroacetyl)-2,5-dimethyl-1H-pyrrole-3-carboxylate]	108.125%
C=CC(=O)N1CCc2c(nnn2CCOC)C1 [1-N05, 1-[1-(2-methoxyethyl)-1H,4H,5H,6H,7H-[1,2,3]triazolo[4,5-c]pyridin-5-yl]prop-2-en-1-one]	84.7473%
Cc1n[nH]c(C)c1C=C(C#N)C(=O)Nc1ccc(SC(F)F)cc1 [8-E08, 2-cyano-N-{4-[(difluoromethyl)sulfanyl]phenyl}-3-(3,5-dimethyl-1H-pyrazol-4-yl)prop-2-enamide]	80.332%
CC1CC(c2ccccc2F)N(C(=O)C(C)Cl)C1 (stereo not drawn) [6-H18, 2-chloro-1-[2-(2-fluorophenyl)-4-methylpyrrolidin-1-yl]propan-1-one]	89.8049%
C=CC(=O)NCc1noc2c1CCCC2 [3-B20, N-[(4,5,6,7-tetrahydro-1,2-benzoxazol-3-yl)methyl]prop-2-enamide]	115.629%
C=CC(=O)Nc1ccc(F)c(C(=O)CC)c1 [1-I22, N-(4-fluoro-3-propanoylphenyl)prop-2-enamide]	119.209%
C=CC(=O)N1CCC(C(=O)N2CCn3ccnc32)CC1 [2-I04, 1-(4-{1H,2H,3H-[1,3]diazolo[1,2-a]imidazole-1-carbonyl}piperidin-1-yl)prop-2-en-1-one]	123.934%
Cc1csc(-n2c(C)cc(C(=O)CCl)c2C)n1 [10-G05, 2-chloro-1-[2,5-dimethyl-1-(4-methyl-1,3-thiazol-2-yl)-1H-pyrrol-3-yl]ethan-1-one]	121.563%
CC(NC(=O)CCl)C(c1ccccc1Cl)n1cccn1 (stereo not drawn) [7-D20, 2-chloro-N-[1-(2-chlorophenyl)-1-(1H-pyrazol-1-yl)propan-2-yl]acetamide]	83.5165%
CSc1ccccc1CC(C)NC(=O)CCl (stereo not drawn) [7-D14, 2-chloro-N-{1-[2-(methylsulfanyl)phenyl]propan-2-yl}acetamide]	105.808%
CS(=O)(=O)NCCc1ccc(C(=O)CCl)cc1 [10-D06, N-{2-[4-(2-chloroacetyl)phenyl]ethyl}methanesulfonamide]	79.375%
Cc1ccc(NC(=O)C(C)Cl)cc1S(=O)(=O)N1CCOCC1 (stereo not drawn) [5-D22, 2-chloro-N-[4-methyl-3-(morpholine-4-sulfonyl)phenyl]propanamide]	99.0893%
